This is one part of the list.
Each compound was assayed on T1, C. trachomatis L2/434/Bu expressing GFP (CTL2-GFP). Details: total inclusion area; 28.5 h, 10 µM; inhibitor.
T1 construct: L2/434/Bu GFP intracellular growth in HeLa cells
Design: species or system HeLa; C. trachomatis total inclusion area by high-content imaging, normalised to DMSO
Summary of the method: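 High-content imaging followed the bulk GFP/resorufin measurement: fixed, Hoechst-stained cells were scored for GFP inclusions and host nuclei per well. Total inclusion area and count served as growth proxies, nuclei number as the viability proxy. MIC calculation matched the bulk assay.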
`C[C@H]1[C@@H]2[C@@H](O)C([C@H](C)C(=O)N3CCCCC3)CC[C@@]2(C)CC[C@@H]1NC(=O)C1CC1` (some centres unmarked) [CBK289446] was tested, and the “% of control remaining” value was 105.024. `CNCC(=O)N(CCc1cc(C(F)(F)F)cc(C(F)(F)F)c1)c1ccc2c(c1)OCO2` [CBK001038T] was tested, and the “% of control remaining” value was 106.145. In the case of `N#Cc1cccc(Nc2cncc(-c3cccc(N)c3)n2)c1` [CBK065319], the “% of control remaining” value was 113.963. `Cc1cc(C)cc(-c2nnc(SCCC(=O)NC(N)=O)o2)c1` [CBK295164] was tested, and the “% of control remaining” value was 111.57. With `O=C(CSc1nc2ccccc2c2nc3ccccc3n12)Nc1ccc(Cl)cc1F` [CBK268098] the “% of control remaining” value was 106.063. For `O=C1CC(C(=O)Nc2ccc3c(c2)OCO3)n2c(nc3ccccc32)N1` (centres unmarked) [CBK270177], the “% of control remaining” value was 96.5109. In the case of `CN(Cc1ccccc1)c1ncc(-c2ccc(N3CCOCC3)cc2)n2ccnc12` [CBK091275], the “% of control remaining” value was 122.584. In the case of `CN(C1=NS(=O)(=O)c2ccccc21)c1ccccc1C(=O)O` [CBK287094], the “% of control remaining” value was 109.012. With `O=C(CCN1CCN(CCO)CC1)Nc1cccc(Br)c1` [CBK058502] the “% of control remaining” value was 41.6237. `CCC(C(=O)Nc1nccs1)N(C)Cc1n[nH]c2c1CCC2` (centres unmarked) [CBK307685] was tested, and the “% of control remaining” value was 78.0127. With `COCc1cc(C[C@@H]2C[C@H](NS(C)(=O)=O)C2(C)C)no1` [CBK289252] the “% of control remaining” value was 111.766. In the case of `CC(C)S(=O)(=O)N1CC2CCCC(O)(c3cccc(F)c3)C2C1` (centres unmarked) [CBK283109], the “% of control remaining” value was 93.7707. In the case of `O=c1[nH]c2ccccc2nc1-c1ccccc1` [CBK016193], the “% of control remaining” value was 78.4904. With `Cc1csc(C(Cc2ccsc2)NC(=O)CCn2ccnc2)n1` (centres unmarked) [CBK285391] the “% of control remaining” value was 85.7583. `Cc1c(C(=O)N2CCn3nc(CO)cc3C2)n(C)c2ccc(F)cc12` [CBK306552] was tested, and the “% of control remaining” value was 88.7039. `Cn1ncc2c(=O)n(Cc3nc(C(C)(C)C)no3)cnc21` [CBK304906] was tested, and the “% of control remaining” value was 31.3347. `CN(C)c1cccc(-c2cnc3[nH]c(=O)n(CCc4ccncc4)c3n2)c1` [CBK064628] was tested, and the “% of control remaining” value was 107.027. With `CN(Cc1ccco1)C(=O)NC1CCCc2c1cnn2CCO` (centres unmarked) [CBK306290] the “% of control remaining” value was 74.3199. `O=C1NCCNC(=O)C2(C/C=C/COc3ccccc31)CCN(C(=O)c1ccc3[nH]nnc3c1)CC2` [CBK292000] was tested, and the “% of control remaining” value was 77.5558. In the case of `O=C(c1cncnc1)N1CCCC2(CCN(C(=O)c3cc(F)c(F)cc3F)C2)C1` (centres unmarked) [CBK131564], the “% of control remaining” value was 52.6497. For `C[C@]12CN(C(=O)c3ccccc3)C[C@H]1NC(=O)c1ccccc1C2=O` [CBK281657], the “% of control remaining” value was 76.037. For `Cc1cc(C)n(CC(C)CNC(=O)Cc2csc(N3CCCC3=O)n2)n1` (centres unmarked) [CBK305624], the “% of control remaining” value was 40.3102. For `CN1CCC(N(C)C(=O)Nc2ccc3c(c2)OCCO3)C1` (centres unmarked) [CBK156008], the “% of control remaining” value was 69.2102. For `CCCCC(=O)N(C)c1c(C)nc2ccc(C(=O)NCc3cccs3)cn12` [CBK147073], the “% of control remaining” value was 97.3699. For `O=C(O)C(Nc1nc(C(F)(F)F)nc2ccccc12)c1ccccc1` (centres unmarked) [CBK269570], the “% of control remaining” value was 84.6813. With `COC(=O)c1sccc1NS(=O)(=O)c1cc(F)c(Br)cc1F` [CBK004492] the “% of control remaining” value was 90.7374. With `Cc1[nH]n(-c2nc3ccccc3o2)c(=O)c1Cc1c(Cl)cccc1Cl` [CBK085382] the “% of control remaining” value was 44.1849. In the case of `COc1ccccc1N1CCN(C(=O)N(CCN)CCC(C)c2ccccc2)CC1` (centres unmarked) [CBK002137C], the “% of control remaining” value was 3.217. `COC(=O)c1ccc(N2C(=O)CC(N3CCC(n4c(=O)[nH]c5ccccc54)CC3)C2=O)cc1` (centres unmarked) [CBK268714] was tested, and the “% of control remaining” value was 96.8734. In the case of `Clc1ccccc1-c1nccnc1NCCc1c[nH]c2ccccc12` [CBK037337], the “% of control remaining” value was 90.4607. `Cc1ccc2[nH]c(-c3cccc(NC(=O)c4ccc(-n5cnnc5)cc4)c3)nc2c1` [CBK285839] was tested, and the “% of control remaining” value was 71.4595. For `Cc1ncccc1-c1cc2cccnc2n1CCCNC(=O)C1CC1C` (centres unmarked) [CBK282688], the “% of control remaining” value was 129.154. `CNC(=O)C1(Cc2cccc(-c3cccs3)c2)CCN(C(=O)c2ccccc2)CC1` [CBK285720] was tested, and the “% of control remaining” value was 112.707. `O=C(O)c1ccccc1C(=O)N1CCC2(CC1)OCCc1c2[nH]c2ccccc12` [CBK046981] was tested, and the “% of control remaining” value was 103.948. `O=C1CC[C@@H](NCc2cccnc2)[C@H](c2cc(F)cc(F)c2)N1` [CBK283130] was tested, and the “% of control remaining” value was 107.049. For `Cc1ccc(Nc2nc(N)nc(-c3cc4ccccc4o3)n2)cc1` [CBK288222], the “% of control remaining” value was 60.1459. In the case of `O=C(NCCN1CCCCC1)C1CC(=O)N(CCc2ccccc2)C1` (centres unmarked) [CBK305986], the “% of control remaining” value was 31.8036. For `O=C(COc1ccc(F)cc1F)NNC(=S)NC1CCCCC1` [CBK266859], the “% of control remaining” value was 104.055. `O=C(O)CCC(=O)N1N=C2C(=Cc3cccc([N+](=O)[O-])c3)CCCC2C1c1cccc([N+](=O)[O-])c1` (centres unmarked) [CBK296071] was tested, and the “% of control remaining” value was 111.457. `CC(=O)NCCSc1ncccc1C(F)(F)F` [CBK105296] was tested, and the “% of control remaining” value was 93.0089. In the case of `CCCCOc1ccc(C(=O)N/C(=C/c2ccco2)C(=O)Nc2cccc(C(=O)O)c2)cc1` [CBK300491], the “% of control remaining” value was 76.8319. With `COc1cc(-c2cn3ccnc3c(N[C@@H]3CCN(Cc4ccccc4)C3)n2)cc(OC)c1OC` [CBK037385] the “% of control remaining” value was 104.451. In the case of `N#Cc1ccccc1-c1ccc(CSc2cccs2)cc1` [CBK002638], the “% of control remaining” value was 80.902. `COc1cccc(N2CC(C(=O)Nc3cccc(C(=O)O)c3)CC2=O)c1` (centres unmarked) [CBK286612] was tested, and the “% of control remaining” value was 77.5668. For `c1nc(OCCN2CCOCC2)cc(N2CCCN(CCN3CCOCC3)CC2)n1` [CBK083647], the “% of control remaining” value was 90.0672. For `COc1c(C)cc(-c2nc(C)nc(C)c2C)cc1C` [CBK307506], the “% of control remaining” value was 67.2704. With `Nc1nnc(SCc2ccc(Br)cc2)s1` [CBK026356] the “% of control remaining” value was 59.4973. In the case of `O=C(Nc1ncc(Cc2ccc(F)cc2)s1)c1ccc(-c2ccc(F)cc2)o1` [CBK300522], the “% of control remaining” value was 59.005. For `Cc1ccn(CCNC(=O)c2ccc3c(C)c(C)[nH]c3c2)n1` [CBK282519], the “% of control remaining” value was 101.796. With `CN(CCc1ccccn1)Cc1cc(Br)cs1` [CBK021314] the “% of control remaining” value was 97.5298.

— article PMC12040169 (PLOS Biology, 2025)
